# Test results: PubChem BioAssay AID485364 (National Center for Advancing Translational Sciences (NCATS), 2010)
# Out of some 360,000 compounds screened, about 11,000 (3.1%) were called active. Inconclusive means that the source gave no clear call. Such entries were picked first, then a sample of the others. Calls follow the shape of the dose curve; as a rule, active = well fitted inhibition curve with a large enough effect; inconclusive = small, poorly fitted or top-dose-only effect; inactive = no such curve, though single readings can be large or run the other way. No potency is given beside an inconclusive call; the fits are too rough.
# Target: Schistosoma mansoni thioredoxin glutathione reductase (TGR) (UniProt Q962Y6)
# Assay: qHTS Assay for the Inhibitors of Schistosoma Mansoni Peroxiredoxins; also: nearly all actives have a fitted effect of over 60% in size
# Conditions: purified TGR, DTNB reduction, TNB absorbance 405 nm; activity change, negative = inhibition: at 114 µM (top of the series) unless noted
# Summary of the method: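 Kinetic colorimetric format: TGR-catalysed, NADPH-driven DTNB reduction monitored via TNB absorbance. Enzyme dispensed at 20 nM; compound exposure 15 min at room temperature before reaction start.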
# % is scaled to controls: 0 for no effect and ±100 for the full control effect; potency is read from the fitted curve at half-maximal effect; tags tell the direction and shape of the fitted curve.
SMILES,Potency,"activity change, negative = inhibition"
O=C(O)C1Cc2ccccc2CN1C(=O)c1ccco1 (stereo unspecified),"inconclusive [inhibitor, partial curve]",–
O=C1NC(=O)/C(=C\c2ccc(Sc3ccc(Cl)cc3)o2)N1,active: 50.1 µM,–
O=C(NCCN1CCOCC1)c1ccc(CS(=O)(=O)c2c(Cl)cccc2Cl)o1,"inconclusive [inhibitor, partial curve]",–
COc1ccc(-c2csc3nc(C)nc(N4CCN(c5ccc(C(C)=O)cc5)CC4)c23)cc1OC,–,inactive: -3.77%
NC(N)=NS(=O)(=O)c1ccc(NC(=S)NC(=O)c2ccccc2)cc1,active: 15.8 µM,–
Cc1ccc(-c2nc(CS(=O)CC(=O)NCCCc3ccccc3)c(C)o2)cc1 (stereo unspecified),active: 35.5 µM,–
Cn1ccc(C(=O)Nc2sc3c(c2C#N)CCC3)n1,"inconclusive [inhibitor, partial curve]",–
Cc1ccc(-n2c(=O)c3cccnc3n2CC(=O)NCc2ccc(Cl)cc2)cc1,–,inactive: -1.53%
Cc1cccc(C(=O)N=c2sccn2C)c1[N+](=O)[O-],"inconclusive [inhibitor, partial curve, poor fit]",–
Cn1c(=O)c(C(=O)CCl)c(N)n(CC2CC2)c1=O,active: 14.1 µM,–
COC(=O)C1=C(C)NC(=S)NC1c1ccc(-c2ccccc2C(=O)OC)o1 (stereo unspecified),"inconclusive [inhibitor, single point]",–
O=C(c1cc2ccccc2oc1=O)N1CCN(Cc2ccc3c(c2)OCO3)CC1,"inconclusive [inhibitor, single point]",–
CCc1ccc(CN(Cc2cccnc2)C(=O)/C=C/c2ccc(OC)cc2)cc1,–,inactive: 2.28%
COC(=O)c1cc2oc(C)cc2n1Cc1ccccc1Cl,–,inactive: -4.37%
COC(=O)CN(C#N)c1nc(NCc2ccccc2)nc(OC)n1,–,inactive: -15.6%
C/C=C1\C(OC2OC(CO)C(O)C(O)C2O)OC=C(C(=O)OC)C1CC(=O)OCC1C(C)C(OC(=O)CC2C(C(=O)OC)=COC(OC3OC(CO)C(O)C(O)C3O)/C2=C\C)CC1C(CO)CO (stereo unspecified),"inconclusive [inhibitor, partial curve]",–
O=[N+]([O-])c1ccc(O)c(C2=NNC(c3ccccc3F)C2)c1 (stereo unspecified),active: 5.01 µM,–
COc1ccc2[nH]c3c(c2c1)CCNC3c1ccc([N+](=O)[O-])o1 (stereo unspecified),active: 0.891 µM,–
O=C(COC(=O)C1=COCCO1)Nc1ncc(C(F)(F)F)cc1Cl,active: 100 µM,–
O=C(NCc1ccc2c(c1)OCO2)c1ccc(CS(=O)Cc2ccc(Cl)cc2)o1 (stereo unspecified),"inconclusive [inhibitor, partial curve]",–
Cc1ccc(C)c(C(=O)CN2C3=NCCCN3c3ccccc32)c1,–,inactive: 4.37%
COc1ccc(NS(=O)(=O)c2cccc(C(=O)Nc3ccccc3C(=O)O)c2)cc1,–,inactive: -8.52%
COc1ccccc1C(=O)NNC1=C(C(=O)C(F)(F)F)CCC1,"inconclusive [inhibitor, partial curve]",–

SMILES,Potency,"activity change, negative = inhibition"
CCc1cc(=O)oc2c3c(cc(OCC(=O)NCCCC(=O)O)c12)OC(C)(C)CC3,–,inactive: 12.5%
CCc1ccccc1N(C(=O)c1ccco1)C(C(=O)NC1CCCC1)c1cccnc1 (stereo unspecified),–,inactive: -7.43%
O=C(CCN1CCN(C(=O)c2ccccc2)CC1)c1ccc(Br)cc1,active: 0.316 µM,–
Cc1csc2nc(CSc3nncn3-c3ccccc3)c(Br)n12,"inconclusive [inhibitor, full curve, poor fit]",–
O=C(NCC(=O)N1CCN(c2ncccn2)CC1)c1ccc(F)cc1,"inconclusive [inhibitor, single point]",–
CCc1nnc2n1N=C(c1cccc([N+](=O)[O-])c1)CS2,"inconclusive [inhibitor, partial curve]",–
CN1C(=O)CC(Sc2ccccc2C(=O)O)C1=O (stereo unspecified),"inconclusive [inhibitor, partial curve]",–
COc1ccc(SC[C@H](CC(C)C)N2CCN(CCc3ccccc3)CCC2=O)cc1,"inconclusive [inhibitor, partial curve]",–
O=C(CCc1ccccc1)NC(=S)NCc1ccco1,"inconclusive [inhibitor, partial curve]",–
CCO[C@@H]1OC(C(N)=O)=C[C@H](c2ccc3c(c2)OCO3)[C@H]1CCCO,"inconclusive [inhibitor, partial curve]",–
COc1ccccc1CN1CCNC(=O)C1CC(=O)N(C)Cc1nc(C)cs1 (stereo unspecified),"inconclusive [inhibitor, partial curve]",–
c1cc(CNc2ccc3c(c2)OCO3)ccn1,"inconclusive [inhibitor, partial curve]",–
Cc1ccc(C(=O)Nc2ccc(Br)cc2)cc1S(=O)(=O)N1CCOCC1,–,inactive: -0.831%
c1ccc2c(c1)OCCc1c-2[nH]c2ccccc12,"inconclusive [inhibitor, partial curve]",–
CC(C)c1onc(C(=O)NC2CCCC2)c1[N+](=O)[O-],"inconclusive [inhibitor, partial curve]",–
Cc1ccc(NCc2ccc(O)c3ncccc23)cc1,"inconclusive [inhibitor, full curve]",–
Cc1ccc(CNC(=O)C(=O)NCC(c2cccs2)S(=O)(=O)c2ccc(C)cc2)cc1 (stereo unspecified),"inconclusive [inhibitor, partial curve]",–
COc1ccccc1NNC(=O)c1cccnc1Oc1ccccc1,"inconclusive [inhibitor, partial curve, poor fit]",–
Cc1ccc(N(C(=O)c2ccco2)C2C=CS(=O)(=O)C2)cc1 (stereo unspecified),–,inactive: 2.29%
Cc1ccc(NC(=S)Nc2cccc3cnccc23)cc1,active: 44.7 µM,–
COCc1ccc(C(=O)N2CCCC(Nc3ccc4c(c3)OCCO4)C2)o1 (stereo unspecified),"inconclusive [inhibitor, full curve, poor fit]",–
Brc1cccc(-c2nnc3sc(CN4CCC5(CC4)OCCO5)cn23)c1,"inconclusive [inhibitor, full curve, poor fit]",–
CN(Cc1cccc(F)c1)CC(O)COCc1ccccc1Cl (stereo unspecified),–,inactive: 11.8%
